Test results from publication PMC12136788.
Some of the results follow.

B1: chr2:216981417:216981418:+_ENSG00000079246_ENST00000392132|hu_hu|hu_hu_hu_mus_True|1_38 (ssRNA)
RNA: GGGAGUUCUACAGUCCGACGAUCCUGAUACUGGUCCUUGCCAGCAAGGGCAUUAUCAGUGCCAUCUGUGCCAUAGAGGACUAACGCAAUCUCAUCUUUGUUCUCAGAAAAUACCUGUCGUUGGACAAACAUAGUCAUCACCUUCAACAGAGGAUUGAGCAUCA
B2: chr1:220276048:220276049:+_ENSG00000067704_ENST00000302637|hu_hu|hu_hu_hu_mus_True|8_78 (ssRNA)
RNA: GGGAGUUCUACAGUCCGACGAUCGCAAAUUGCCUGGUUGGCGGGAAUUGUCCAAGGUUGUGUGGUCCAAACUAAAACGCUAACAGGGGAUGAGGCAUCUGUAAGAGACUCCAACUUCGGAGGAGGUUUUAAGAGAGGGAAUCUCAACAGAGGAUUGAGCAUCA
B3: chr13:55314627:55314628:+_ENSMUSG00000021488_ENSMUST00000099490|mus_hu|FALSE|FALSE (ssRNA)
RNA: GGGAGUUCUACAGUCCGACGAUCUACUGGUACUGGAAUCUGGAUCAUCCGAAAGGGCUGUCCUUGUCUUCAGGGGCAUCUAAAUUCACUGGAUUGGAAAAGGGCAGCAGACAAUUUCUUCUGGGUAGUUCACAGGUCUGAUCCCAACAGAGGAUUGAGCAUCA
B4: chr7:135839730:135839731:+_ENSMUSG00000042105_ENSMUST00000151237|mus_mus|FALSE|FALSE (ssRNA)
RNA: GGGAGUUCUACAGUCCGACGAUCACGCUGAUGUUUUGAAUUACAGUGGUUCUUUUAAUAGUCACAAGACUUGACACUGCUAAUAAAUAACAAAAUCGGAAUGCUUGUCAGAGUUUUAACAGACAUAAUGUUAAACUGAGAGUCCAACAGAGGAUUGAGCAUCA
B5: 137519644_137519764_1055_CDS_ENSG00000027697_ENST00000367739|human|control|control (ssRNA)
RNA: GGGAGUUCUACAGUCCGACGAUCAACUGUUGCUGGAGACAACGGCUCUUCACAGACCACCUCCUUUUCUAAGGAAAAUGGCUGGUAUGACGUGAUGAGUGAUACAUAUUUUGAUUCAGGUUUUGUCUCUAAAGUAGCACUUCUCAACAGAGGAUUGAGCAUCA
B6: 40646300_40646420_476_CDS_ENSMUSG00000019831_ENSMUST00000105509|mouse|control|control (ssRNA)
RNA: GGGAGUUCUACAGUCCGACGAUCUUCCUCCUUAGGAUCAAGCUGUGUGACACUAACAGACAAUCGGUCCACGCGCUCUUGCAACGAGUUAACUCUGAAGGAAAAACUGUGUGCUUCAUUGAAUAAUUCUCCAAAUAUGUCUUCCAACAGAGGAUUGAGCAUCA
B7: chr7:106826281:106826282:+_ENSG00000105856_ENST00000468410|hu_hu|motif|central (ssRNA)
RNA: GGGAGUUCUACAGUCCGACGAUCUUCACUCUUCGAAGAAGAGGACACUGGUGGAGGGCGUGCAUAGGAAUGUAAACUUUUGCGGGUGGCUAUGAUGUGUACAGGAGAUGAUCUAUUGUAAAAUGAGCACUGCAUCAGUGGACUCAACAGAGGAUUGAGCAUCA
B8: 44870228_44879938_508_3pUTR_ENSG00000147050_ENST00000377967|human|control|control (ssRNA)
RNA: GGGAGUUCUACAGUCCGACGAUCAUAAGCCCAAGUCGUAAAUGAAUUUCCUUGGCUCGACAAAAGCUGGGAUCAACAUAAAGCACCUCCUGAAAUGCUUUAAUUGCCCACUGAAAUGCAUUAUAAUGGAAGUAGACCAAACCACAACAGAGGAUUGAGCAUCA
B9: chr3:33863462:33863463:+_ENSG00000170248_ENST00000307296|hu_mus|FALSE|FALSE (ssRNA)
RNA: GGGAGUUCUACAGUCCGACGAUCUGCAAUCUGGCUAGCUAAGGCAGCACAAUUGAACAACACACAGCUCUUUUCAUAUCCUAAGCUUGCAAGAGCCAAUUUUACAGACCCUCCAAAAAGGGAACCUUUAUCAAAAGCAUCCUUCAACAGAGGAUUGAGCAUCA
B10: 139258311_139258431_300_CDS_ENSG00000114115_ENST00000232219|human|control|control (ssRNA)
RNA: GGGAGUUCUACAGUCCGACGAUCCAGGUACUCCUCGAAAUUCUCGUUGACCAACAUCUUCCAGUACCCAGUGAAGUCGACUGGCAUUUCGGGGAGUGACUGGAGCCAGUUGGCCACAAGCGGGCGGGACGGCUGGAGACUGCCCAACAGAGGAUUGAGCAUCA
B11: chrX:131284163:131284164:-_ENSMUSG00000050394_ENSMUST00000052431|mus_mus|FALSE|FALSE (ssRNA)
RNA: GGGAGUUCUACAGUCCGACGAUCGGGACUCCUGUUUCCAACCACUGAUAGGCUGGCCAGAUGUUUACUGAUAUUGGGGCUAAGGGAAAAGCCAGCAUUUAUGUUCUUCGUGAACCUUUUCUUUCUUUGAGUGGAAACACACUUCAACAGAGGAUUGAGCAUCA
B12: chr7:151048522:151048523:+_ENSG00000013374_ENST00000566856|hu_mus|hu_hu_hu_mus_True|88_88 (ssRNA)
RNA: GGGAGUUCUACAGUCCGACGAUCCUGUUUCUUAUUUAUUACGAUCUUGAUAUAAUUUUCUUGAAAUCCGAAAGUUUCAGCUAUUUGACACCUCAGGUCUCUACCAGUGACAUGCAAGCGGGUCUCCAACAAGCUUUUCUUAUCCAACAGAGGAUUGAGCAUCA
B13: 117003776_117003896_1837_3pUTR_ENSMUSG00000027351_ENSMUST00000028829|mouse|control|control (ssRNA)
RNA: GGGAGUUCUACAGUCCGACGAUCCUCUGUGAUCUGUCCCAGAACAUGCCAUGCACUCAGGGAAACAGGCACGGCUAGCAUCUGUAAAUCACAAGAACUGAUGAGUUCUGCUUCCUCCACGCAUGGCCCCAAUGAUACCGGCAACAACAGAGGAUUGAGCAUCA
B14: chr11:74493064:74493065:-_ENSMUSG00000020745_ENSMUST00000021091|mus_mus|FALSE|FALSE (ssRNA)
RNA: GGGAGUUCUACAGUCCGACGAUCCUUGUUCUUAUAAUCCCAUACACGGAGGGUCUUGUCAUCAGCACAACUCAAAAUAAACUUCCCCCCAGAAUGGAACAGAACUCCACGUACCCAGUUAUCAUGACCCACAAGAGUCAUAAGCAACAGAGGAUUGAGCAUCA
B15: chr10:33190432:33190433:-_ENSG00000150093_ENST00000302278|hu_mus|hu_hu_hu_mus_True|8_38 (ssRNA)
RNA: GGGAGUUCUACAGUCCGACGAUCUACAUUUUCCAAACCUGCAUGUGAAUAAAACCCUGGCCACAGAGCCCCAAAACUACCCUACUGUGACUAAGAUAAUUGCUACUUGAGCUUGGUGUUGCAAAAUUUUGCACGGGAGGAUUCCAACAGAGGAUUGAGCAUCA
B16: chr3:32335226:32335227:+_ENSMUSG00000027665_ENSMUST00000108243|mus_mus|FALSE|FALSE (ssRNA)
RNA: GGGAGUUCUACAGUCCGACGAUCGGCCUCUCUGAACAGUUCAUGUUUGAUGGUGACGAGUGUGGCCUCACGGAGGCAUUCUAAAGUCACUAUCAUUCCAUUGGGGAGUAAACAUUCCACUAGGAUUCGUGGGGGCAUCAAGUGCAACAGAGGAUUGAGCAUCA
B17: chr1:39494564:39494565:+_ENSG00000168653_ENST00000372967|hu_hu|hu_hu_hu_mus_True|18_28 (ssRNA)
RNA: GGGAGUUCUACAGUCCGACGAUCAUGCAUUCGCCUCAUCGUUUUGUACCGAAGCAAGCACUCUUCGAAGUCAUCGAACUCUAUCUUGCACUCCUUUUUCGCCCGGGUAUAACCGAUUCCAUGUGCACACUCUAUCCACUCUUUCAACAGAGGAUUGAGCAUCA
B18: chr1:130485734:130485735:-_ENSMUSG00000045382_ENSMUST00000052172|mus_mus|mus_mus_mus_hu_False|38_58 (ssRNA)
RNA: GGGAGUUCUACAGUCCGACGAUCGAUGAAGGAGUCGAUGCUGAUCCCAAUGUAGUAAGGCAGCCAACAGGCGAAGAAAGCUAGGAUGAGGAUGACUGUCGUCUUGAGGGCCUUGCGCUUCUGGUGGCCCUUGGAGUGUGACAGCAACAGAGGAUUGAGCAUCA
B19: chr1:184378663:184378664:+_ENSMUSG00000026510_ENSMUST00000117245|mus_mus|FALSE|FALSE (ssRNA)
RNA: GGGAGUUCUACAGUCCGACGAUCCAAGAAAGGCAGUAAUUUUGUUGGGCUGAGUGGUCGAGGAAUCCUUUCGUUUUCAUGGCUCUCAUGAACUGAAGAAACGGUCUCUGUCUCGGGCUCCGGACUGCCAGGCUUCCCCUGGCUCAACAGAGGAUUGAGCAUCA
B20: chr7:141441981:141441982:+_ENSG00000106028_ENST00000265304|hu_mus|hu_hu_hu_mus_False|8_78 (ssRNA)
RNA: GGGAGUUCUACAGUCCGACGAUCCUCAUGUCUUACAAACUGACGAAAUACCUGUAAUACAGGUCUUCGAAACAUGGCUUCUGUUUUUCUUACAACCUAAUCUUUAGGCUUUUCCUAAAGGAAAGAAUAACCCGAGCAAAAUGACAACAGAGGAUUGAGCAUCA
B21: 120770645_120770765_141_5pUTR_ENSMUSG00000043207_ENSMUST00000058754|mouse|control|control (ssRNA)
RNA: GGGAGUUCUACAGUCCGACGAUCCUCAGCGACACGCGUCCCUCGGAGAGUGCCAGCGGUGUCACAACAAUACGGGUCCCUUCCGAGGGCUUCUUCAGACGCCCAUUCCCUCAGCUUUGCCAGAAGUGUCACAAAGACACGAUUCAACAGAGGAUUGAGCAUCA
B22: chr2:202488911:202488912:-_ENSG00000155755_ENST00000286196|hu_mus|hu_hu_hu_mus_False|58_58 (ssRNA)
RNA: GGGAGUUCUACAGUCCGACGAUCAUUGAAACAUUUUUCAUAAUCUCCAGUAGCAUUUCAGCAUUAUGUAACAAAAGAUCUAUUACAAAUACAUGUAUCUUAUAAAAAUACACUUAAAAACACGAGUGGGGAGCGCAGGCGCCACAACAGAGGAUUGAGCAUCA

biological target: T1, UNK ZnF1-3 (human, UniProt Q9C0B0 31-174); experiment: nsRBNS (natural sequence RNA bind-n-seq); RBNS binding buffer (assumed for nsRBNS): 25 mM Tris pH 7.5, 150 mM KCl, 3 mM MgCl2, 0.01% Triton X-100, 500 ug/ml BSA, 20 U/ml SUPERase-In, 4 C; UNK is unkempt and MSI1 is Musashi-1; names of the RNAs are library labels; protein concentration not given here; high values mean tight binding
T1 sequence: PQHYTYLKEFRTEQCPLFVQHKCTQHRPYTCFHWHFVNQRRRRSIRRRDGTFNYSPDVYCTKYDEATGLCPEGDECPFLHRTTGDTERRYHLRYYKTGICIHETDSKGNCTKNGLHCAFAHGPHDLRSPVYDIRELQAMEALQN

Compared with B1, B2 is higher in binding signal: 0.718 enrichment R for the first, 1.91 enrichment R for the second.

Going from B3 to B4, the binding signal falls from 1.04 enrichment R to 0.744 enrichment R.

First: B5
Second: B6
The binding signal of the first is lower: 0.554 enrichment R for the first, 1.08 enrichment R for the second.

Compared with B7, B8 is lower in binding signal: 1.19 enrichment R for the first, 1.05 enrichment R for the second.

Going from B9 to B10, the binding signal falls from 1.02 enrichment R to 0.82 enrichment R.

Going from B11 to B12, the binding signal rises from 0.729 enrichment R to 0.998 enrichment R.

Compared with B13, B14 is higher in binding signal: 0.696 enrichment R for the first, 1.05 enrichment R for the second.

Going from B15 to B16, the binding signal falls from 1.2 enrichment R to 1.15 enrichment R.

Going from B17 to B18, the binding signal rises from 0.674 enrichment R to 1.12 enrichment R.

Compared with B19, B20 is lower in binding signal: 0.811 enrichment R for the first, 0.724 enrichment R for the second.

Compared with B21, B22 is higher in binding signal: 0.703 enrichment R for the first, 0.917 enrichment R for the second.
